Source: paper PMC4336329 (PLoS ONE, 2015)
The whole screen tested about 310,000 compounds, of which about 14,000 (4.5%) showed an effect of 50% or more. The effect is printed as a negative number. This is one part of the list.

biological target: human ether-à-go-go-related gene (hERG) potassium channel (human, UniProt Q12809); experiment: primary screen, population patch clamp on CHO cells stably expressing hERG
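Also: peak tail current of the secondary pulse compared with the same well before compound.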

Chain of human ether-à-go-go-related gene (hERG) potassium channel (Q12809 whole entry, looked up): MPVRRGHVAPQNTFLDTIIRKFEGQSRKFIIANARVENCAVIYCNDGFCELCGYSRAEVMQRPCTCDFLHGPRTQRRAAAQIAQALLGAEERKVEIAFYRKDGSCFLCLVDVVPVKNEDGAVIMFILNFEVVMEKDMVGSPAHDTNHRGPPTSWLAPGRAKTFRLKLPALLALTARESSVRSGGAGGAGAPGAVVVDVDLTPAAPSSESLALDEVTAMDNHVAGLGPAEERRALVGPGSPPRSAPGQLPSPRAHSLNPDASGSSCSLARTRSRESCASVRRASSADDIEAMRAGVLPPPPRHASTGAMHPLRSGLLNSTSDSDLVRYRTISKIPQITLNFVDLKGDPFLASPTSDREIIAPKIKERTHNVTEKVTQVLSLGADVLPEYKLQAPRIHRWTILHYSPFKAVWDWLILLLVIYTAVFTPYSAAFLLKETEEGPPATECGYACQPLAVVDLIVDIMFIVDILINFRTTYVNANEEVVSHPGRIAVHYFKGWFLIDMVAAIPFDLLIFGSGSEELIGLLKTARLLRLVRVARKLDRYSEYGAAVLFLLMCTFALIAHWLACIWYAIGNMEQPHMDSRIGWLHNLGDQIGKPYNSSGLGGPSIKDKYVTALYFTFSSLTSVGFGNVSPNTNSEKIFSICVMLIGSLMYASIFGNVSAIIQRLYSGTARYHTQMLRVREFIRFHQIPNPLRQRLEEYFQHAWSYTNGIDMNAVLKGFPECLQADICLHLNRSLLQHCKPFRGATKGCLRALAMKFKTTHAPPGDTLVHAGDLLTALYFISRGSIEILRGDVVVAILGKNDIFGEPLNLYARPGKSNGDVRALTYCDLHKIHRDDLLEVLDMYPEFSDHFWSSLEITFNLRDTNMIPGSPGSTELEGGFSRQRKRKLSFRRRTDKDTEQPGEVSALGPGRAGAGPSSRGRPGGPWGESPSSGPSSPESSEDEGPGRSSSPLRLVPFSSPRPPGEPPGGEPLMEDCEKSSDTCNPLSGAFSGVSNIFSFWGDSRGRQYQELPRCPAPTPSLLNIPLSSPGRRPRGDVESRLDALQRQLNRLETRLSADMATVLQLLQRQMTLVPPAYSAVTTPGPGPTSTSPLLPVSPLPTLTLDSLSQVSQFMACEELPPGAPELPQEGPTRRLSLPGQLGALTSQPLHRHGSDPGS

Row | SMILES | hERG current change (%, negative = inhibition) at 10uM [%]
1 | Nc1cccnc1Sc1cc(Cl)c(Cl)cc1Cl | 6.47
2 | COCCCNC(=O)C1CCN(c2ccc(N3CCOCC3)nn2)CC1 | 10.1
3 | CCn1cc(C(=O)NCCCOC(C)C)c(=O)c2cc(S(=O)(=O)N3CCC(C)CC3)ccc21 | -3.11
4 | COc1cccc(OCc2cc(/C=N/NC(=O)c3nc(Cl)c(Cl)c(N)c3Cl)ccc2OC)c1 | 13.8
5 | COc1ccc(Br)c(C(=O)OCC(=O)NC2CC2)c1 | -2.09
6 | Cc1ccc(C(=O)O)cc1NC(=O)CCc1ccccc1 | 14.2
7 | CN(C(=O)c1cc2c(s1)-c1ccccc1S(=O)(=O)C2)c1ccccc1 | -0.0159
8 | O=C(Nc1nnc(-c2ccc(F)cc2)o1)c1cc(Cl)sc1Cl | 26.2
9 | CC(CN1C(C)CCCC1C)OC(=O)c1ccccc1Br.Cl (stereo not drawn) | -21.3
10 | CCCCn1c(SCC(=O)N(C)C2CCS(=O)(=O)C2)nc2cc(S(N)(=O)=O)ccc21 (stereo not drawn) | 14.8
11 | COc1ccc(-c2noc(-c3ccc(Br)o3)n2)cc1 | 17.2
12 | Cc1cc(C)c(C#N)c(N2CCC(C(N)=O)CC2)n1 | 11.1
13 | CCN1CCN(C(=O)CCc2nnc(CCc3ccccc3OC)o2)[C@@H](C)C1=O | 17
14 | CCC(C)(C(=O)NC1CCCC1)N(C(=O)c1ccccn1)c1ccc(C)cc1 (stereo not drawn) | 8.12
15 | Cn1c(CN2CCCC2)nc2cc(NC(=O)COc3ccc(Cl)cc3)ccc21 | -69.2
16 | O=C(Nc1ccccc1)O/N=C/c1ccncc1 | 2.76
17 | CCCOc1ccc(-c2nc(N3CCN(C)CC3)c3ccccc3n2)cc1 | -21.6
18 | COc1ccc(N(CCC(=O)O)S(=O)(=O)c2ccc(C)cc2C)cc1 | 4.13
19 | Cc1ccc(NC(=O)Cn2nc(-c3ccccc3Cl)ccc2=O)c(Br)c1 | -6.46
20 | Cc1ccc(NC(=O)C2=CCN(S(=O)(=O)c3ccc(F)cc3)CC2)cc1 | 1.2
21 | Cc1cccc(C)c1N1C(=O)c2cccc([N+](=O)[O-])c2C1=O | -13.6
22 | CN(C)S(=O)(=O)c1ccc(Cl)c(NC(=O)CN2C(=O)NC3(CCCC3)C2=O)c1 | 1.38
23 | Cc1cccc(CN2CCN(C(C)C(=O)NC(C)c3ccccc3)CC2)c1.O=C(O)C(=O)O (stereo not drawn) | -6.97
24 | Cc1sc(NC(=O)CN2C(=O)NC3(CCCC3)C2=O)nc1-c1ccc(F)cc1 | -22.4
